Measured values reported in PubChem BioAssay AID1347073 (National Center for Advancing Translational Sciences (NCATS), 2019).
In all, about 45,000 compounds went through this assay and about 200 (0.44%) were called active. The shares of active, inactive and inconclusive entries below differ from those in the screen. The call rests on the fitted dose curve; in most records, active means well fitted activation curve with a large enough effect; inconclusive means small, poorly fitted or top-dose-only effect; inactive means no such curve, though single readings can be large or run the other way. Potencies beside an inconclusive call are fits to weak or partial responses and may not hold up.

test: qHTS of TDP-43 Inhibitors: NCGC Sytravon Library Screen; conditions: yeast TDP-43 toxicity rescue, BacTiter-Glo growth, 24 h; growth rescue (activation): at 46.1 µM (top of the series); further: nearly all actives have a fitted effect of over 55% in size; on growth rescue (activation): 0% is about no effect
Method in brief: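 TDP-43-expressing yeast, pregrown in raffinose, seeded at OD600 0.02 in galactose medium with compound for 24 hr at 30 deg C. Growth read by BacTiter-Glo luminescence, so rescue of toxicity appears as activation.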
Potency means the concentration at half of the fitted maximal effect; tags describe the fitted curve by direction and shape.

| SMILES | Potency | growth rescue (activation) |
| --- | --- | --- |
| O=C(CCn1c(=O)c2sccc2n(Cc2ccccc2F)c1=O)NCc1ccc2c(c1)OCO2 | inactive | – |
| COc1ccc2c(c1OC)C(=O)OC2n1c(O)c(N=NC(C)=O)c2ccccc21 (configuration not stated) | inconclusive: 22.4 µM [activator, partial curve, poor fit] | – |
| COc1cc2c(cc1NC(=O)C(C)Sc1ccc(NC(C)=O)cc1)oc1ccccc12 (configuration not stated) | inconclusive: 35.5 µM [activator, single point] | – |
| Cc1ccc(Cl)cc1-c1ccc(C=Nc2ccc(N3CCOCC3)cc2)o1 | inconclusive: 17.8 µM [activator, single point] | – |
| Cc1ccc(-c2nn3c(-c4ccccc4C)nnc3c3ccccc23)cc1 | inactive | – |
| COc1ccccc1NC(=S)NC(=O)/C=C/c1ccco1 | inconclusive: 22.4 µM [activator, partial curve, poor fit] | – |
| CN(C)S(=O)(=O)c1ccc(NCC2COc3ccccc3O2)c([N+](=O)[O-])c1 (configuration not stated) | inconclusive: 17.8 µM [activator, single point] | – |
| CCOc1ccccc1/C=N/Nc1nc2ccccc2o1 | inactive | – |
| Cc1csc(NC(=O)c2ccc(Br)s2)n1 | inconclusive: 15.8 µM [activator, single point] | – |
| COc1cccc(C(O)c2nc(-c3ccccc3OC)cs2)c1 (configuration not stated) | – | inconclusive: 75.3% [activator] |
| Cc1c(CCNC(=O)c2c(F)cccc2F)sc2nc(-c3ccc(F)cc3)nn12 | inactive | – |
| COc1cccc(C(C)(O)c2nc(-c3ccc(F)cc3OC)cs2)c1 (configuration not stated) | – | inconclusive: 81.9% [activator] |
| COc1ccc(OC)c(N2C(=O)c3cccnc3C2=O)c1 | inactive | – |
| O=C(O)Cn1cc(/C=N/NC(=O)c2cc3cc(Br)ccc3o2)c2ccccc21 | inconclusive: 15.8 µM [activator, partial curve] | – |
| Cc1cc(C)c(C)c(S(=O)(=O)NCc2ccncc2)c1C | inactive | – |
| CCn1cc(C(=O)Nn2cnnc2)c(=O)c2ccc(C)nc21 | inconclusive: 35.5 µM [activator, single point] | – |
| Cc1cccc(C2c3[nH]c4ccccc4c3CCN2Cc2ccc(C)s2)n1 (configuration not stated) | inactive | – |
| CCN(Cc1nc2cc(Cl)ccc2c(=O)[nH]1)C(=O)c1cc(C2CC2)nn1-c1ccccc1 | inconclusive: 20 µM [activator, partial curve, poor fit] | – |
| CCOc1ccc(CNC(=O)c2ccc(Sc3ccc(C)cc3)c(NC(C)=O)c2)cc1 | inconclusive: 15.8 µM [activator, single point] | – |
| CSc1nc2nc3c(cc2c(=O)n1-c1ccccc1C)CCCC3 | inconclusive: 20 µM [activator, single point] | – |
| S=C(NCc1ccco1)N1CCN(Cc2ccc(Cl)cc2Cl)CC1 | inactive | – |
| COc1ccc2cc(C(=O)C3CCCN(C(=O)c4cnccn4)C3)ccc2c1 (configuration not stated) | inconclusive: 31.6 µM [activator, single point] | – |
| CCCN(CC(=O)Nc1cccc(Br)c1)CC(=O)Nc1ccc(F)c(F)c1F | inconclusive: 22.4 µM [activator, single point] | – |

| SMILES | Potency | growth rescue (activation) |
| --- | --- | --- |
| COCc1cccc(-c2csc(C(O)c3ccccc3)n2)c1 (configuration not stated) | – | inconclusive: 51.9% [activator] |
| Cc1cc([N+](=O)[O-])ccc1NC(=O)COc1nsnc1N1CCOCC1 | inconclusive: 12.6 µM [activator, partial curve, poor fit] | – |
| CCc1cc(C(=O)OC)c(NC(=O)CCCC(=O)O)s1 | inconclusive: 35.5 µM [activator, single point] | – |
| COc1ccc(Sc2nc(-c3ccccn3)ncc2OC)cc1 | inconclusive: 28.2 µM [activator, partial curve, poor fit] | – |
| CCOC(=O)C1(C)CCCN(C(=O)c2cc(OC)c(OC)c(OC)c2)C1 (configuration not stated) | inactive | – |
| COc1ccc(C(O)c2nc(-c3ccccc3OC)cs2)cc1 (configuration not stated) | – | inconclusive: 63.8% [activator] |
| Cc1nc(N2CCN(c3ccccc3O)CC2)c2c(-c3ccccc3)csc2n1 | inconclusive: 11.2 µM [activator, partial curve] | – |
| COc1ccc(Br)cc1CNC(=O)C1CCN(c2nnc(-n3cccc3CNc3ccc(C)cc3)s2)CC1 | inactive | – |
| COc1ccc(C(=O)NCc2ccccc2)cc1Br | inconclusive: 17.8 µM [activator, partial curve, poor fit] | – |
| O=C(NCCNC(=O)c1ccccn1)c1ccc(-c2ccccc2)cc1 | inconclusive: 11.2 µM [activator, partial curve] | – |
| COc1ccc(NC(=O)c2cc(C3CCCCN3C(=O)c3ccc(NC(C)=O)cc3)on2)c(C)c1 (configuration not stated) | inactive | – |
| O=C(CCSCc1cccc(Cl)c1)NC1CCCC1 | inconclusive: 22.4 µM [activator, single point] | – |
| CCc1ccc(OCCCC(=O)NCc2ccccc2)cc1 | inconclusive: 22.4 µM [activator, partial curve, poor fit] | – |
| COCCNc1ccc([N+](=O)[O-])cc1C(=O)NC1CCCc2ccccc21 (configuration not stated) | inconclusive: 20 µM [activator, single point] | – |
| O=S(=O)(c1ccccc1)N1CCC(O)(CSc2ccc(Cl)cc2)CC1 | inconclusive: 15.8 µM [activator, partial curve, poor fit] | – |
| Nn1c(=O)c2ccccc2n2c(SCc3ccccc3)nnc12 | inactive | – |
| CCn1c(=O)[nH]c(=O)c2c(N)c(C(=O)c3cc(F)ccc3F)sc21 | inconclusive: 35.5 µM [activator, single point] | – |
| CCc1ccc(CNc2ncc(-c3cccc(OC)c3)n2C)cc1 | inactive | – |
| CN(Cc1nc2ccccc2c(=O)[nH]1)C(=O)C1CC(=O)N(c2cccc3ccccc23)C1 (configuration not stated) | inactive | – |
| COC(=O)c1ccccc1NC(=O)c1ccc(NS(C)(=O)=O)cc1 | inactive | – |
| Nc1cc(S(=O)(=O)Nc2ccc(Br)cc2)ccc1Cl | inconclusive: 20 µM [activator, partial curve, poor fit] | – |
| CCOc1ccc(OCCCC(=O)N(C)CC(=O)Nc2ccccc2Br)cc1 | inconclusive: 35.5 µM [activator, single point] | – |
| Cc1ccc(C)c(CSC2=NC(C)(C)Nc3ccccc32)c1 | inconclusive: 11.2 µM [activator, partial curve, poor fit] | – |

| SMILES | Potency | growth rescue (activation) |
| --- | --- | --- |
| Cc1ccc(C(=O)N/N=C\c2ccc(-c3ccc(Cl)c(Cl)c3)o2)cn1 | inconclusive: 11.2 µM [activator, partial curve] | – |
| O=[N+]([O-])c1cccc(C(=S)N2CCN(c3ccccc3)CC2)c1 | inconclusive: 11.2 µM [activator, partial curve, poor fit] | – |
| Cc1ccc(Cl)c(NC(=O)COC(=O)c2nn(-c3ccccc3)cc2O)c1Cl | inconclusive: 10 µM [activator, partial curve, poor fit] | – |
| CCc1cccc(C)c1NC(=S)N(CCOC)C(C)c1ccco1 (configuration not stated) | inconclusive: 35.5 µM [activator, single point] | – |
| Cc1ccc(C(=O)NCC(=O)NCc2ccc(Cl)cc2)s1 | inactive | – |
| CCc1ccccc1NC(=O)Cn1nnc(-c2nc(-c3ccncc3)no2)c1N | inactive | – |
| Cn1nc(C(=O)Nc2ccc(S(=O)(=O)Nc3ncccn3)cc2)ccc1=O | inconclusive: 15.8 µM [activator, partial curve, poor fit] | – |
| COc1ccccc1C(=O)n1nc(-c2cccnc2)nc1NCc1ccccc1 | inconclusive: 22.4 µM [activator, single point] | – |
| O=C(O)c1ccc(/C=C(\c2nc3ccccc3[nH]2)c2nc3ccccc3s2)cc1 | inconclusive: 20 µM [activator, partial curve, poor fit] | – |
| COc1ccc(CCNC(=O)COC(=O)c2cc(S(=O)(=O)NCc3ccccc3)ccc2O)cc1OC | inconclusive: 28.2 µM [activator, single point] | – |
| Cc1cc(C)n(-c2ccc(C(=O)Nc3ccc4c(c3)OCCO4)cc2)n1 | inconclusive: 17.8 µM [activator, partial curve, poor fit] | – |
| Fc1cc2ncn(Cc3ccccc3)c2cc1F | inconclusive: 35.5 µM [activator, single point] | – |
| Cc1ccc(F)cc1C(=O)N1CCCC(c2cc(C(=O)Nc3ccccc3Cl)no2)C1 (configuration not stated) | – | inconclusive: 37.8% [activator] |
| CCOC(=O)c1c(C(C)(C)C)oc2ccc(OCC#N)cc12 | inconclusive: 35.5 µM [activator, single point] | – |
| Cc1ccc(C)c(N2CCN(C(=O)c3ccc(N4CCOCC4)c([N+](=O)[O-])c3)CC2)c1 | inconclusive: 22.4 µM [activator, single point] | – |
| O=C(Nc1nc(-c2cccs2)cs1)c1ccco1 | inconclusive: 15.8 µM [activator, partial curve, poor fit] | – |
| O=C(N1CCN(c2ccccc2)CC1)C1(S(=O)(=O)c2ccc(Cl)cc2)CC1 | inconclusive: 25.1 µM [activator, single point] | – |
| COc1ccc(C(=O)/C=C/c2ccccc2F)c(OC(=O)c2ccc([N+](=O)[O-])cc2)c1 | inconclusive: 12.6 µM [activator, partial curve, poor fit] | – |
| O=C(CNC(c1ccccc1)c1ccccc1)Nc1cc([N+](=O)[O-])ccc1Cl | inconclusive: 22.4 µM [activator, single point] | – |
| Cn1c(SCC(=O)NC2CCCC2)nnc1-c1ccco1 | inactive | – |
| COc1cccc(C(C)(O)c2nc(-c3cccc(C(C)C)c3)cs2)c1 (configuration not stated) | inconclusive: 15.8 µM [activator, single point] | – |
